In ChEMBL document CHEMBL1157539, “Thousands of chemical starting points for antimalarial lead identification” (Nature, 2010):
The full ranking holds about 13,000 compounds; the median of “IFI” is about 4, and the highest 2% start at about 17. Some of the results follow.

Assay: GSK_TCMDC: Inhibition Frequency Index (IFI). The number of non-kinase HTS assays where a compound showed > 50 % inhibition, expressed as a percentage of the number of such assays in which the compound was tested (-0 is zero)
Assay type: functional

Row | SMILES | IFI [%]
1 | Cn1nccc1C(=O)NCCNCc1ccc(-c2ccc(-c3nc4ccccc4[nH]3)s2)cc1 | 3.92
2 | Nc1ccc2nc(C=Cc3ccc(Cl)cc3)[nH]c2c1 | 2.11
3 | Cc1cc(N2CCCC2)nc(Nc2ccc(NC(=O)C(C)Oc3ccccc3)cc2)n1 (stereo not given) | 15.4
4 | COc1cccc(C(C)(C)NC[C@@H](O)[C@H](Cc2ccccc2)NC(=O)c2cc(C3CCCC3)cc(N3CCCCS3(=O)=O)c2F)c1 | 12.9
5 | CS(=O)(=O)c1ccc(CCNCc2ccc(-c3ccc(CN(C(=O)c4ccc(Cl)nc4)C4CCN(Cc5ccccc5)CC4)cc3)nc2)cc1 | 6.25
6 | N=C(N)NN=Cc1ccc2ccc3ccccc3c2c1 | 7.04
7 | COc1ccc(NC(=O)Nc2ccc(-c3ccc(-c4nc5ccccc5[nH]4)cc3)cc2)cc1 | 0
8 | CC(C)(C)c1ccc2[nH]c(-c3ccc(C(=O)NCCCc4ccccc4)cc3)nc2c1 | 3.7
9 | Cc1noc(C)c1-c1cccc(CNCc2ccc(-c3ccc(-c4nc5cc(F)ccc5[nH]4)s3)cc2)c1 | 4.85
10 | C[C@H](Cc1ccc(OCCCCCCOc2ccc(C[C@@H](C)N[C@H](C)c3ccccc3)cc2)cc1)NC[C@H](O)c1cccc(Cl)c1 | 19.6
11 | O=c1cc(NCCCNCc2[nH]c3cc(Cl)ccc3c2Cl)[nH]c2ccccc12 | 5.97
12 | C=C1C[C@@H](n2cnc3c(NC(=O)c4ccccc4)ncnc32)[C@@H](F)[C@@H]1OC(c1ccccc1)(c1ccccc1)c1ccccc1 | -0
13 | COc1cc2c(cc1OC)CC(NCc1ccc(-c3ccc4nc[nH]c4c3)cc1)C2 | -0
14 | CC1(C)CNCc2cc(NC(=O)/C=C/c3ccc(Cl)cc3)ccc21 | 2.27
15 | CCc1cn(CCS(C)(=O)=O)c2ccc(C(=O)N[C@@H](Cc3ccccc3)[C@H](O)CNC(C)(C)CCCC(C)C)cc12 | 4.35
16 | CC(Oc1ccc(Cl)cc1)C(=O)Nc1cc(C(F)(F)F)ccc1N1CCOCC1 (stereo not given) | 7.23
17 | Cc1nc(-c2ccc(C#N)cc2)sc1C(=O)NCCCCN1CCC(c2ccc3c(c2OCCO)CCCC3)CC1 | 5.5
18 | CN(C)CCC1CCN(CCS(=O)(=O)c2cccc(Nc3ncc(-c4cccc(F)c4)cn3)c2)CC1 | 10.7
19 | CCNc1cc(C(=O)N[C@@H](Cc2cccc(F)c2)[C@H](O)CNC(C)CCCC(C)C)cc(N2CCCCS2(=O)=O)c1 (stereo not given in full) | 2.94
20 | CCOC(=O)c1nc(-c2cccc(F)c2)[nH]c1N | 2.92
21 | CCC(C)NC(=O)Cn1c2ncccc2c(=O)n1-c1ccc(C)cc1 (stereo not given) | 2.33
22 | N#Cc1cccc(NC(=O)Nc2ccc(CC(=O)N3CCc4cc(Cl)c(N5CCN(C/C=C/c6ccccc6)CC5)cc43)cc2)c1 | 0.72
23 | Nc1c2c(nc3ccc(C(=O)Nc4cc(I)c(O)c(I)c4)cc13)CCCC2 | 9.02
24 | N#Cc1ccc(CCNc2nccc(-c3cccc(CN4CCNCC4)c3)n2)cc1 | 8.33
25 | CC(=O)Nc1ccc(C(=O)Nc2cccc(-c3ccc(-c4nc5ccccc5[nH]4)cc3)c2)cn1 | 7.89
26 | Cc1cc2nc(-c3cccc(C(=O)NC4CCN(Cc5ccccc5)CC4)c3)[nH]c2cc1C | 3.01
27 | O=c1cc(NCCC(CNCCc2ccccc2)NCc2cc(Br)cc(Br)c2)[nH]c2ccccc12 (stereo not given) | 7.69
28 | O=C(/C=C/c1ccc(Cl)c(Cl)c1)NCCCCCCN1CCCN(C(=O)Nc2ccc(C(F)(F)F)cc2)CC1 | 12.3

Row | SMILES | IFI [%]
29 | CCN(CC)CCCCCNc1c2ccc(Cl)cc2nc2ccc(OC)cc12 | 8.03
30 | CCCCCCNC(=O)C1Cc2c([nH]c3ccc(Br)cc23)C2(CCN(CCc3ccccc3)CC2)N1 (stereo not given) | 8.45
31 | O=C(Nc1ccc(Cl)cn1)c1sc2ccccc2c1O | 2.44
32 | Cc1nc(N)nc(N)c1OCCCOc1cccc(Cl)c1Cl | 5.22
33 | Cc1nc(NCc2ccccc2)cc(Nc2cc(NCc3ccccc3)nc(C)n2)n1 | 3.91
34 | CN(C)CCCn1c(C(=O)OC(c2ccccc2)c2ccccc2)cc2cc(OCc3ccccc3)ccc21 | 7.89
35 | Cc1cc(-c2ccc(NC(=O)N3CCc4cc(Br)c(N5CCN(C)CC5)cc43)cc2)ccc1C#N | 12.7
36 | N#Cc1cccc(NC(=O)Nc2ccc(-c3cccc(-c4nc5cc(F)ccc5[nH]4)c3)cc2)c1 | 4.04
37 | Cc1cc(C(=O)CN2C(=O)NC(C)(c3cccc4ccccc34)C2=O)c(C)n1Cc1ccco1 (stereo not given) | 2.82
38 | Cc1ccc(CNC(=O)c2cc3c(=O)n4cccc(C)c4nc3n(CCN3CCOCC3)c2=N)cc1 | -0
39 | CCNc1cc(C(=O)N[C@@H](Cc2ccccc2)[C@H](O)CNCc2cc(OC)cc(OC)c2)cc(N2CCCC2=O)c1 | 4.29
40 | Cc1sc(CNCCCNc2cc(=O)c3ccccc3[nH]2)c(C(F)(F)F)c1C | 5
41 | CN1CC[C@@H](Oc2cc(NC(=O)Nc3ccc(Cl)c(C(F)(F)F)c3)ccc2Cl)C1 | 7.63
42 | COC(=O)c1ccc2nc(-c3ccc(/C=C/C(=O)NCc4ccc(Cl)c(Cl)c4)cc3)[nH]c2c1 | 3.03
43 | NC1CCN(CCc2ccc(NS(=O)(=O)c3cccc4ccccc34)cc2)CC1 | 8.33
44 | Cc1cccc(CN2CCC(CNC(=O)c3cc4c(-c5ccccc5F)nn(C)c4s3)CC2)c1 | 6.52
45 | CCN(CC)CCOc1ccc(C(O)(C#CC(O)(c2ccccc2)c2ccc(OCCN(CC)CC)cc2)c2ccccc2)cc1 (stereo not given) | 6.52
46 | Cc1ccc(Nc2nc(N)c3ccccc3n2)cc1 | 4.93
47 | CNC(=O)c1nc(-c2ccccc2)[nH]c1NC(C)=O | 0
48 | CCOC(=O)c1ccc(NC(=O)NNC(=O)c2ccc(CCN3CCC(c4nc(COCC(F)(F)F)c(-c5ccc(F)cc5)o4)CC3)cc2)cc1 | -0
49 | O=C(Nc1cccc(C(F)(F)F)c1)Nc1ccc(Cl)c(Cl)c1 | 16.1
50 | COc1ccc(CN2CCC(NCc3cccc([N+](=O)[O-])c3)CC2)cc1 | 0.72
51 | NC(=O)c1ccccc1OCC(=O)Nc1cccc(-c2ccc(-c3nc4ccccc4[nH]3)cc2)c1 | 13
52 | O=C(Nc1cccc(-c2ccc(CN3CCNCC3)cc2)c1)c1cccc(Cl)c1 | 6.8
53 | CCCN1CCC2(CC1)NC(C(=O)NCCC(C)C)Cc1c2[nH]c2cc(Cl)ccc12 (stereo not given) | 2.19
54 | Cc1c(C)n(C2CCCCC2)c2ncnc(OC3CCN(CC(=O)NC4CC4)CC3)c12 | 4.44
55 | O=C(Nc1ccc(Cl)cc1Cl)NC1CCN(CCCCCNC(=O)C2CC2c2ccc(Cl)c(Cl)c2)CC1 (stereo not given) | 13.6
